Some of the results follow. The full chains were built here from the parent and the listed change. Inactive controls read about 0.05.
B1: TEV protease; numbered along this chain (parent)
chain: MGESLFKGPRDYNPISSSICHLTNESDGHTTSLYGIGFGPFIITNKHLFRRNNGTLVVQSLHGVFKVKDTTTLQQHLVDGRDMIIIRMPKDFPPFPQKLKFREPQREERICLVTTNFQTKSMSSMVSDTSCTFPSGDGIFWKHWIQTKDGQCGSPLVSTRDGFIVGIHSASNFTNTNNYFTSVPKNFMELLTNQEAQQWVSGWRLNADSVLWGGHKVFMVKPEEPFQPVKEATQL
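Further: Bxb1 expression induced with 0.2% (w/v) L-rhamnose at OD600 near 0.5, cultures sampled hourly, flipped fraction per protease–substrate barcode pair counted by paired-end Illumina sequencing.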

Variants of: B1
Test: raw area under fraction-flipped curve 0-4 h after induction (AUC4h, not background-subtracted), DNA-recorder readout of cleavage of the substrate (dimensionless); higher = more cleavage of the substrate by the protease variant
Details: temperature: 34 °C; time window: 0-4 h after rhamnose induction
With MGESLFKGPRDYNPISSSICHLTNESDGHTTSLYGIGFGPFIITNKHLFRRNNGTLVVQSLHGVFKVKDTTTLQQHLVDGRDMIIIRMPKDFPPFPQKLKFREPQREERICLVTTNFQTKSMSSMVSDTSCTFPSGDGIFWKHWIQTKDGQCGSPLVSTRDGFIVGIHSASNFTNTNNYFTSVPKNFKELLTNQEAQQWVSGWRLNADSVLWGGHKVFMVKPEEPFQPVKEATQL [M188K] the “area with substrate ECLYFQS” value was 0.104, the “area with substrate EELYFQS” value was 0.086 and the “area with substrate EFLYFQS” value was 0.093. For the same variant, the “area with substrate EGLYFQS” value was 0.0556, the “area with substrate EILYFQS” value was 0.103 and the “area with substrate EKLYFQS” value was 0.0775. For the same variant, the “area with substrate EMLYFQS” value was 0.105, the “area with substrate EPLYFQS” value was 0.135 and the “area with substrate EQLYFQS” value was 0.141. For the same variant, the “area with substrate ESLYFQS” value was 0.111 and the “area with substrate EVLYFQS” value was 0.0989. In the case of MGESLFKGPRDYNPISSSICHLTNESDGHTTSLYGIGFGPFIITNKHLFRRNNGTLVVQSLHGVFKVKDTTTLQQHLVDGRDMIIIRMPKDFPPFPQKLKFREPQREERICLVTTNFQTKSMSSMVSDTSCTFPSGDGIFWKHWIQTKDGQCGSPLVSTRDGFIVGIHSASNFTNTNNYFTSVPKNFMEILTNQEAQQWVSGWRLNADSVLWGGHKVFMVKPEEPFQPVKEATQL [L190I], the “area with substrate ECLYFQS” value is reported as 0.0986, the “area with substrate EDLYFQS” value is reported as 0.14 and the “area with substrate EGLYFQS” value is reported as 0.11. For the same variant, the “area with substrate ELLYFQS” value was 0.0953, the “area with substrate EPLYFQS” value was 0.132 and the “area with substrate ESLYFQS” value was 0.088. For the same variant, the “area with substrate EVLYFQS” value was 0.0496, the “area with substrate EWLYFQS” value was 0.0934 and the “area with substrate EYLYFQS” value was 0.116. With MGESLFKGPRDYNPISSSICHLTNESDGHTTSLYGIGFGPFIITNKHLFRRNNGTLVVQSLHGVFKVKDTTTLQQHLVDGRDMIIIRMPKDFPPFPQKLKFREPQREERICLVTTNFQTKSMSSMVSDTSCTFPSGDGIFWKHWIQTKDGQCGSPLVSTRDGFIVGIHSASNFTNTNNYFTSVPKNFMEKLTNQEAQQWVSGWRLNADSVLWGGHKVFMVKPEEPFQPVKEATQL [L190K] the “area with substrate ECLYFQS” value was 0.091, the “area with substrate EDLYFQS” value was 0.126 and the “area with substrate EELYFQS” value was 0.156. The “area with substrate EGLYFQS” value was 0.0637, the “area with substrate EHLYFQS” value was 0.0831 and the “area with substrate EILYFQS” value was 0.0669. For the same variant, the “area with substrate EKLYFQS” value was 0.0979, the “area with substrate ELLYFQS” value was 0.0884 and the “area with substrate EMLYFQS” value was 0.134. The “area with substrate EPLYFQS” value was 0.0902, the “area with substrate ERLYFQS” value was 0.0868 and the “area with substrate ESLYFQS” value was 0.103. For the same variant, the “area with substrate ETLYFQS” value was 0.145, the “area with substrate EVLYFQS” value was 0.0894 and the “area with substrate EWLYFQS” value was 0.0771. With MGESLFKGPRDYNPISSSICHLTNESDGHTTSLYGIGFGPFIITNKHLFRRNNGTLVVQSLHGVFKVKDTTTLQQHLVDGRDMIIIRMPKDFPPFPQKLKFREPQREERICLVTTNFQTKSMSSMVSDTSCTFPSGDGIFWKHWIQTKDGQCGSPLVSTRDGFIVGIHSASNFTNTNNYFTSVPKNFMELLTFQEAQQWVSGWRLNADSVLWGGHKVFMVKPEEPFQPVKEATQL [N193F] the “area with substrate ECLYFQS” value was 0.0777, the “area with substrate EELYFQS” value was 0.0706 and the “area with substrate EILYFQS” value was 0.0574. The “area with substrate EQLYFQS” value was 0.101, the “area with substrate ESLYFQS” value was 0.0954 and the “area with substrate EVLYFQS” value was 0.0831. For the same variant, the “area with substrate EWLYFQS” value was 0.0828. For MGESLFKGPRDYNPISSSICHLTNESDGHTTSLYGIGFGPFIITNKHLFRRNNGTLVVQSLHGVFKVKDTTTLQQHLVDGRDMIIIRMPKDFPPFPQKLKFREPQREERICLVTTNFQTKSMSSMVSDTSCTFPSGDGIFWKHWIQTKDGQCGSPLVSTRDGFIVGIHSASNFTNTNNYFTSVPKNFMELLTNQWAQQWVSGWRLNADSVLWGGHKVFMVKPEEPFQPVKEATQL [E195W], the “area with substrate ECLYFQS” value was 0.0732, the “area with substrate EGLYFQS” value was 0.0647 and the “area with substrate EHLYFQS” value was 0.0996. The “area with substrate ERLYFQS” value was 0.0938, the “area with substrate EVLYFQS” value was 0.0665 and the “area with substrate EYLYFQS” value was 0.1. With MGESLFKGPRDYNPISSSICHLTNESDGHTTSLYGIGFGPFIITNKHLFRRNNGTLVVQSLHGVFKVKDTTTLQQHLVDGRDMIIIRMPKDFPPFPQKLKFREPQREERICLVTTNFQTKSMSSMVSDTSCTFPSGDGIFWKHWIQTKDGQCGSPLVSTRDGFIVGIHSASNFTNTNNYFTSVPKNFMELLTNQEPQQWVSGWRLNADSVLWGGHKVFMVKPEEPFQPVKEATQL [A196P] the “area with substrate ECLYFQS” value was 0.0755, the “area with substrate EDLYFQS” value was 0.117 and the “area with substrate EFLYFQS” value was 0.0985. For the same variant, the “area with substrate EGLYFQS” value was 0.0689, the “area with substrate ELLYFQS” value was 0.032 and the “area with substrate EMLYFQS” value was 0.0998. For the same variant, the “area with substrate EPLYFQS” value was 0.135, the “area with substrate ERLYFQS” value was 0.0961 and the “area with substrate ESLYFQS” value was 0.0834. For the same variant, the “area with substrate EVLYFQS” value was 0.0849 and the “area with substrate EWLYFQS” value was 0.0961. With MGESLFKGPRDYNPISSSICHLTNESDGHTTSLYGIGFGPFIITNKHLFRRNNGTLVVQSLHGVFKVKDTTTLQQHLVDGRDMIIIRMPKDFPPFPQKLKFREPQREERICLVTTNFQTKSMSSMVSDTSCTFPSGDGIFWKHWIQTKDGQCGSPLVSTRDGFIVGIHSASNFTNTNNYFTSVPKNFMELLTNQEAQQAVSGWRLNADSVLWGGHKVFMVKPEEPFQPVKEATQL [W199A] the “area with substrate ECLYFQS” value was 0.0575, the “area with substrate EILYFQS” value was 0.0681 and the “area with substrate ELLYFQS” value was 0.0631. For the same variant, the “area with substrate EMLYFQS” value was 0.0776, the “area with substrate EPLYFQS” value was 0.0726 and the “area with substrate ERLYFQS” value was 0.0435. For the same variant, the “area with substrate ESLYFQS” value was 0.0717 and the “area with substrate ETLYFQS” value was 0.0368. In the case of MGESLFKGPRDYNPISSSICHLTNESDGHTTSLYGIGFGPFIITNKHLFRRNNGTLVVQSLHGVFKVKDTTTLQQHLVDGRDMIIIRMPKDFPPFPQKLKFREPQREERICLVTTNFQTKSMSSMVSDTSCTFPSGDGIFWKHWIQTKDGQCGSPLVSTRDGFIVGIHSASNFTNTNNYFTSVPKNFMELLTNQEAQQKVSGWRLNADSVLWGGHKVFMVKPEEPFQPVKEATQL [W199K], the “area with substrate ECLYFQS” value is reported as 0.0701, the “area with substrate EELYFQS” value is reported as 0.0617 and the “area with substrate EILYFQS” value is reported as 0.0761. For the same variant, the “area with substrate EMLYFQS” value was 0.0649, the “area with substrate ERLYFQS” value was 0.0628 and the “area with substrate ESLYFQS” value was 0.0705. For the same variant, the “area with substrate EWLYFQS” value was 0.0617. For MGESLFKGPRDYNPISSSICHLTNESDGHTTSLYGIGFGPFIITNKHLFRRNNGTLVVQSLHGVFKVKDTTTLQQHLVDGRDMIIIRMPKDFPPFPQKLKFREPQREERICLVTTNFQTKSMSSMVSDTSCTFPSGDGIFWKHWIQTKDGQCGSPLVSTRDGFIVGIHSASNFTNTNNYFTSVPKNFMELLTNQEAQQWVTGWRLNADSVLWGGHKVFMVKPEEPFQPVKEATQL [S201T], the “area with substrate ECLYFQS” value was 0.113, the “area with substrate EELYFQS” value was 0.0884 and the “area with substrate EGLYFQS” value was 0.154. For the same variant, the “area with substrate EILYFQS” value was 0.12, the “area with substrate ELLYFQS” value was 0.114 and the “area with substrate EMLYFQS” value was 0.116. For the same variant, the “area with substrate ERLYFQS” value was 0.109, the “area with substrate ESLYFQS” value was 0.15 and the “area with substrate EWLYFQS” value was 0.134. With MGESLFKGPRDYNPISSSICHLTNESDGHTTSLYGIGFGPFIITNKHLFRRNNGTLVVQSLHGVFKVKDTTTLQQHLVDGRDMIIIRMPKDFPPFPQKLKFREPQREERICLVTTNFQTKSMSSMVSDTSCTFPSGDGIFWKHWIQTKDGQCGSPLVSTRDGFIVGIHSASNFTNTNNYFTSVPKNFMELLTNQEAQQWVSGFRLNADSVLWGGHKVFMVKPEEPFQPVKEATQL [W203F] the “area with substrate ECLYFQS” value was 0.0697, the “area with substrate EELYFQS” value was 0.0942 and the “area with substrate EILYFQS” value was 0.0981. For the same variant, the “area with substrate EQLYFQS” value was 0.0747.
